According to a collection of fitness landscapes (doi:10.1016/j.celrep.2020.107928):
Whole data set: some 81,000 sequences, median “one-hybrid fitness for binding parS DNA” near -0.17, cut for the highest 2% near 0.51. The list shows a part of the results.

B1: Caulobacter ParB omega fusion; a variant is named by its letters at X, in order, B8GW30 (parent)
chain: MESVVVGEPGMSEGRRGLGRGLSALLGEVDAAPAQAPGEQLGGSREAPIEILQRNPDQPRRTFREEDLEDLSNSIREKGVLQPILVRPSPDTAGEYQIVAGERAWRAAQRAGLKTVPIMVRELDDLAVLEIGIIENVQRADLNVLEEALSYKVLMEKFERTQENIAQTIGKSXSHVANXMRLLXLPDEVQSYLVSGELTAXHARAIAAAADPVALAKQIIEGGLSVRETEALARKAPNLSAGKSKGGRPPRVKDTDTQALESDLSSVLGLDVSIDHRGSTGTLTITYATLEQLDDLCNRLTRGI

Variants of: B1
Test: one-hybrid fitness for binding parS DNA (scaled: cognate 1, non-cognate 0); higher = stronger binding
Conditions: with parS DNA site
In short: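 Selection: bacterial one-hybrid in E. coli USO, HIS3 reporter with the site 19 bp from the promoter, 48 hours at 37°C on M9-minus-histidine plus 0.1 mM IPTG and 5 mM 3-AT. Libraries were Caulobacter ParB with four randomised specificity codons, sequenced on Illumina before and after selection. Fitness is the rescaled log change in variant-to-wild-type read ratio, anchored to the cognate and non-cognate sites.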

Row | Variant | one-hybrid fitness for binding parS DNA
1 | RDTK | ≤ 0.2
2 | YLPF | ≤ 0.2
3 | LSFC | ≤ 0.2
4 | ATFL | ≤ 0.2
5 | RMWH | 0.231
6 | LAAL | ≤ 0.2
7 | SIHM | ≤ 0.2
8 | RDQY | ≤ 0.2
9 | KCHR | ≤ 0.2
10 | GMSS | ≤ 0.2
11 | PCHF | ≤ 0.2
12 | RRSC | 0.596
13 | TIVR | ≤ 0.2
14 | CTMG | ≤ 0.2
15 | DNAS | ≤ 0.2
16 | SRAR | ≤ 0.2
17 | PFQS | ≤ 0.2
18 | VAVL | ≤ 0.2
19 | ASYE | ≤ 0.2
20 | VFIS | ≤ 0.2
21 | YSFT | ≤ 0.2
22 | FAYY | ≤ 0.2
23 | QLIR | ≤ 0.2
24 | DQTI | ≤ 0.2
25 | EIQV | ≤ 0.2
26 | KWVW | ≤ 0.2

Row | Variant | one-hybrid fitness for binding parS DNA
27 | MINS | ≤ 0.2
28 | SVIM | ≤ 0.2
29 | FPFG | ≤ 0.2
30 | DRTR | ≤ 0.2
31 | RPHY | ≤ 0.2
32 | QLIL | ≤ 0.2
33 | YSHA | ≤ 0.2
34 | DQCS | ≤ 0.2
35 | TGPQ | ≤ 0.2
36 | GEFN | 0.205
37 | IEVS | ≤ 0.2
38 | PCVF | ≤ 0.2
39 | NPLG | ≤ 0.2
40 | IIDG | ≤ 0.2
41 | FATT | ≤ 0.2
42 | LMCG | ≤ 0.2
43 | PWLD | ≤ 0.2
44 | KATI | ≤ 0.2
45 | GLRT | ≤ 0.2
46 | CVTF | ≤ 0.2
47 | HNEA | ≤ 0.2
48 | CCTS | ≤ 0.2
49 | KPHR | ≤ 0.2
50 | LISL | ≤ 0.2
51 | LIDG | ≤ 0.2
52 | PCPR | ≤ 0.2

Row | Variant | one-hybrid fitness for binding parS DNA
53 | PAQG | ≤ 0.2
54 | LDLG | ≤ 0.2
55 | QCHE | ≤ 0.2
56 | TFLA | ≤ 0.2
57 | LKDT | ≤ 0.2
58 | NCKE | ≤ 0.2
59 | NGDR | ≤ 0.2
60 | CWRR | ≤ 0.2
61 | QGKK | ≤ 0.2
62 | NLIM | ≤ 0.2
63 | RGWR | ≤ 0.2
64 | QFAP | ≤ 0.2
65 | PDLW | ≤ 0.2
66 | FDYR | ≤ 0.2
67 | GVIS | ≤ 0.2
68 | RCDT | 0.813
69 | RYAT | 0.899
70 | NTAR | ≤ 0.2
71 | ACMV | ≤ 0.2
72 | GGWR | ≤ 0.2
73 | YYGR | ≤ 0.2
74 | CHLD | ≤ 0.2
75 | NSFW | ≤ 0.2
76 | WPIR | ≤ 0.2
77 | TIHH | ≤ 0.2
78 | PEMN | ≤ 0.2

Row | Variant | one-hybrid fitness for binding parS DNA
79 | MCCR | ≤ 0.2
80 | RWKY | 0.565
81 | CQLC | ≤ 0.2
82 | PTIT | ≤ 0.2
83 | EDNC | ≤ 0.2
84 | QDRL | ≤ 0.2
85 | AQGK | ≤ 0.2
86 | TWTQ | ≤ 0.2
87 | NSQG | ≤ 0.2
88 | IKWD | ≤ 0.2
89 | VRMT | ≤ 0.2
90 | PNST | ≤ 0.2
91 | VFLT | ≤ 0.2
92 | PEKF | ≤ 0.2
93 | LITS | ≤ 0.2
94 | TLTD | ≤ 0.2
95 | GLHL | ≤ 0.2
96 | SKKT | ≤ 0.2
97 | RCYV | ≤ 0.2
98 | LALF | ≤ 0.2
99 | RQTM | 0.331
100 | NQAC | ≤ 0.2
101 | SMMI | ≤ 0.2
102 | TPHK | ≤ 0.2
103 | WNAW | ≤ 0.2
104 | PKDF | ≤ 0.2

Row | Variant | one-hybrid fitness for binding parS DNA
105 | HDCI | ≤ 0.2
106 | YQDT | ≤ 0.2
107 | RWDK | ≤ 0.2
108 | RRAT | 0.562
109 | NSTQ | ≤ 0.2
110 | ANAS | ≤ 0.2
111 | QKDT | ≤ 0.2
112 | DVWR | ≤ 0.2
113 | TSCG | ≤ 0.2
114 | YNTH | ≤ 0.2
115 | ANRS | ≤ 0.2
116 | IALG | ≤ 0.2
117 | YERR | ≤ 0.2
118 | IAWG | ≤ 0.2
119 | WCAG | ≤ 0.2
120 | EDHR | ≤ 0.2
121 | PSYF | ≤ 0.2
122 | QYSS | ≤ 0.2
123 | IRTS | ≤ 0.2
124 | DVCT | ≤ 0.2
125 | PAYN | ≤ 0.2
126 | VGIN | ≤ 0.2
127 | PRTS | ≤ 0.2
128 | QTPR | ≤ 0.2
129 | KYLG | ≤ 0.2
130 | APNT | ≤ 0.2

Row | Variant | one-hybrid fitness for binding parS DNA
131 | LTDG | ≤ 0.2
132 | PYDH | ≤ 0.2
133 | NNIS | ≤ 0.2
134 | GMPW | ≤ 0.2
135 | DDHL | ≤ 0.2
136 | HPSS | ≤ 0.2
137 | HMRA | ≤ 0.2
138 | WWLL | ≤ 0.2
139 | YSVP | 0.319
140 | VGIR | ≤ 0.2
141 | QSDE | ≤ 0.2
142 | ASCY | ≤ 0.2
143 | DVVH | ≤ 0.2
144 | REKY | ≤ 0.2
145 | TLCR | ≤ 0.2
146 | ASRG | ≤ 0.2
147 | HWCG | ≤ 0.2
148 | FRTM | ≤ 0.2
149 | PDNG | ≤ 0.2
150 | WMPS | ≤ 0.2
151 | PDPS | ≤ 0.2
152 | CISR | ≤ 0.2
153 | KWNR | ≤ 0.2
